This is one part of the list.
T1: UNK ZnF1-3 (human, UniProt Q9C0B0 31-174)
T1 sequence: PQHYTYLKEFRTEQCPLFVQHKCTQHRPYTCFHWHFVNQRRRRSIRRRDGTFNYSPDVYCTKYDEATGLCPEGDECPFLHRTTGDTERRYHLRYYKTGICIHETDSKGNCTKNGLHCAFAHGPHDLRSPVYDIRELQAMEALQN

B1: chr4:115894766:115894767:+_ENSMUSG00000028698_ENSMUST00000030464|mus_mus|FALSE|FALSE (ssRNA)
RNA: GGGAGUUCUACAGUCCGACGAUCUCCACACGGAAAUGUACUUGGGGGUUUCCAACGGCCAGUACAAGUCCAGCCAAACUACUAGGAUGAGGACAAGGUCCUCCUCUUCUCUCCUCCUAAAGCACCCAACAAAAUACCCCGAACCAACAGAGGAUUGAGCAUCA
B2: chrX:100667754:100667755:+_ENSG00000126945_ENST00000316594|hu_mus|motif|central (ssRNA)
RNA: GGGAGUUCUACAGUCCGACGAUCUCCAUAUCUAUGAUCAGACAUUCCUGAGAAACAGUAGUUUAGGUCUCUUCCAAAUCGGUCAGACCCAAAACCAUACCCGUCAUUAUAACCUCCAUAGUCAUCAUAGCCUCCAUACCCUCCCAACAGAGGAUUGAGCAUCA
B3: chr1:245021434:245021435:-_ENSG00000153187_ENST00000283179|hu_hu|FALSE|FALSE (ssRNA)
RNA: GGGAGUUCUACAGUCCGACGAUCGAUGAAAGUAUACUCUUCAGGUAUUGGAAAAUAUGGCUUUUCCUUCUGACCAAAAUUAAAUUCAACUGCACAGUUGUGGCAGAGAACAUGCGGGAACAGUGGCCGUCCAGCAAGAACUUCCAACAGAGGAUUGAGCAUCA
B4: chr7:102944291:102944292:+_ENSG00000105819_ENST00000453466|hu_hu|FALSE|FALSE (ssRNA)
RNA: GGGAGUUCUACAGUCCGACGAUCGUUCAAUCUCUGCUUCUCCCAAUGUGCUGUUUUGUAUUAUAUCAGCAAGAAUUUCUACAGCUCUUGGCAAGUCUUUAGAGAAUGCUUUGGCAUAGUAUACAGUCUGCUCUCUGGAGGUAUCAACAGAGGAUUGAGCAUCA
B5: chr6:40197388:40197389:+_ENSMUSG00000057716_ENSMUST00000061740|mus_mus|mus_mus_mus_hu_False|28_88 (ssRNA)
RNA: GGGAGUUCUACAGUCCGACGAUCGAGACACUGGGGUGGAUUUAUUCUCAGUUUGGGUGGGUGCUAGCCACUAAGACUGUUAUUUUGGGAUUCAUGGCCUUGAAUAUCAAGAGGAAAAGGAAGAGGAUGGAAAGAGUCAAGAGUCAACAGAGGAUUGAGCAUCA
B6: chr2:217001844:217001845:+_ENSG00000079246_ENST00000392132|hu_hu|hu_hu_hu_mus_False|28_68 (ssRNA)
RNA: GGGAGUUCUACAGUCCGACGAUCACCAACUUGAGGAUUAGAUCUUUUGUCAUAAGCAUAUCGGACGAUGGCCACCAUGUUUAACUCAUCCAAAGCAUGAACGAGAGAGGAAAGUGCAACAGCUGCCGCCUCAUCAUCCUUUGCCAACAGAGGAUUGAGCAUCA
B7: chr4:65274301:65274302:+_ENSMUSG00000051675_ENSMUST00000050850|mus_mus|FALSE|FALSE (ssRNA)
RNA: GGGAGUUCUACAGUCCGACGAUCGUGCAGCAGCUUGGGUCGCAGCUGCUCUUCAGUGAAGGACUCCAUGCAGAUGGGACAUUCUAGCACUUCCCGGAGGGCAUCCAGGUUCAGGUGAGAAGCUGCUGCAGCCGCAGCCAUUGCCAACAGAGGAUUGAGCAUCA
B8: chr8:95500983:95500984:-_ENSG00000164944_ENST00000437199|hu_hu|hu_hu_hu_mus_True|98_98 (ssRNA)
RNA: GGGAGUUCUACAGUCCGACGAUCAGAACACAUCUAUUCGUGUAAAGACCGUACAUGACGGCCUCUACCACUGCCUCCACUAACAAACUUUCCUCUCGAGCCUCCACUGCCGCUAUUUGUACUAGCCCAGGACGGUCCCAGGCCCAACAGAGGAUUGAGCAUCA
B9: 120130817_120169532_478_3pUTR_ENSG00000163430_ENST00000295633|human|control|control (ssRNA)
RNA: GGGAGUUCUACAGUCCGACGAUCGAGGUUUGCAUUGCUCAAUGCAGAGACAGGUGGGUUCCCCUUUCUCUGUGACUGCACAUUCCCGGCCGGCUCCACAAAACACAUUGGCACAGAUCUUGGAUUUGCUCCUUAGCUCUUCCUCAACAGAGGAUUGAGCAUCA
B10: 32097623_32097985_2494_CDS_ENSG00000165322_ENST00000344936|human|control|control (ssRNA)
RNA: GGGAGUUCUACAGUCCGACGAUCUGGCAACUGUCUGAUUAGGUCCUUAACAGCAGCGACUCGCUGUCUUGGUUCUUGCUUAAUUGCAUUAACAAAAUCAUUAAAAUGAUUAAAUGUAAAAAGAGGUUCUGGUAAUUCUCGAAACAACAGAGGAUUGAGCAUCA
B11: chr8:117878989:117878990:-_ENSG00000164754_ENST00000297338|hu_hu|hu_hu_hu_mus_True|38_58 (ssRNA)
RNA: GGGAGUUCUACAGUCCGACGAUCCCAGAGGCCCUCGUUUACUGAGGACAAAAUGUGCGUAGAACAUUUUUCUUAUUGGCUAUGAAAUAAGAAGAAAACCUUGCUCUGGCGGGGAGCCGGGAGGGGUGGGUGGCCCGGGGAGGGCAACAGAGGAUUGAGCAUCA
B12: 183621111_183622453_1677_3pUTR_ENSG00000077232_ENST00000418559|human|control|control (ssRNA)
RNA: GGGAGUUCUACAGUCCGACGAUCUCUAUACUGCCCACGUUGAUCAGUCCAGUUAAUGUCCGGGCCAUUCUUUUCCAUUCUGGCAUUAAGACUUGGCAAGGAUGACACCACGGAGAAUAGAAAUCAACCAUCCAGACUUCGUUGCAACAGAGGAUUGAGCAUCA
B13: chr1:137268451:137268452:-_ENSMUSG00000041889_ENSMUST00000041240|mus_hu|FALSE|FALSE (ssRNA)
RNA: GGGAGUUCUACAGUCCGACGAUCGGGGCCUGGUGGCUGGAGGACUCCUGCCACCCCCAGGACCAGAUGCAGGUACAGGAUGAGGGCAUCUCCCAAGGUUGGCAUCACUGAAGGGGCAGCAGAGACAUGGCUGGUUCCUCAGGCCAACAGAGGAUUGAGCAUCA
B14: 59925189_59925309_2213_CDS_ENSG00000134444_ENST00000256858|human|control|control (ssRNA)
RNA: GGGAGUUCUACAGUCCGACGAUCGUCUGGAUCAUCAAUGUAUCCCAUAAUGAUACCAAGGCUUUUGAUAACAGCUUCUCUUACCAAAUCUGCCUUAUCUUCCAUUAACAUUUGUUGCAACAUUGAAAGAACCAAGGAGCUACGCAACAGAGGAUUGAGCAUCA
B15: chr2:144079538:144079539:-_ENSMUSG00000027423_ENSMUST00000110030|mus_mus|FALSE|FALSE (ssRNA)
RNA: GGGAGUUCUACAGUCCGACGAUCGGCCUUGUCCAAAGCUUUGUUUGAAUUCUCAUAGUCAAUUAGGGCUUUGGUACGUCUAUACAAGAGAUCCUUUGCAGCCUCUAUGUUGAGCAUGUAGUAUCGGAGGAGCUCUGUCAGUUUCAACAGAGGAUUGAGCAUCA
B16: chr9:95013113:95013114:-_ENSG00000196305_ENST00000443024|hu_hu|hu_hu_hu_mus_False|18_68 (ssRNA)
RNA: GGGAGUUCUACAGUCCGACGAUCCUCAGUCAGAAAGGGCGUGUAAGGGGCCAUCAGUCUGCACAGAGAAAGCAGAACACUGAACAGUGUCUCCAGAGCCAUGACACAGUCUUCCACCCCAUUUUCACCCUUUAACCUCCUCCUCAACAGAGGAUUGAGCAUCA
B17: chr4:9557972:9557973:-_ENSMUSG00000028207_ENSMUST00000146441|mus_mus|FALSE|FALSE (ssRNA)
RNA: GGGAGUUCUACAGUCCGACGAUCACCAUCAACACCAUCUGCAGUUUCGCUUUCUUCUUCCUCUUCUUCUAGCAUUUCAAAAGGAGUCAUUAUAUCAUAGAGAAAUGAGAGGAAACCAUAAAACCAAUCUGAACUCUCCUCCGCCAACAGAGGAUUGAGCAUCA
B18: chr16:29649037:29649038:+_ENSMUSG00000038084_ENSMUST00000160597|mus_hu|FALSE|FALSE (ssRNA)
RNA: GGGAGUUCUACAGUCCGACGAUCUUUAAUUUAUUUCUCCUGAUGAAGAGCUUCAAUGAAAGCAUCAAGUUUUUCUUGAAUUUCUCUAACUUUCUUGAGGUCUUCCGCCAGUUGAACGCGUUUACCAGUAAGCAAUUUAAUCUUCAACAGAGGAUUGAGCAUCA
B19: chr3:57569700:57569701:-_ENSG00000168374_ENST00000303436|hu_hu|motif|central (ssRNA)
RNA: GGGAGUUCUACAGUCCGACGAUCCACAAAAAUAAGACCCUGGGUAUUCUGGAAGUAAUGCUUCCAGAGAGGCCUAAUUCGGUCUUGACCACCAACAUCCCAUACUGUGAAACAAAUGUUCUUAUAUUCUACUGUUUCCACAUUCAACAGAGGAUUGAGCAUCA
B20: chr4:17845017:17845018:+_ENSG00000109805_ENST00000514176|hu_mus|hu_hu_hu_mus_False|8_28 (ssRNA)
RNA: GGGAGUUCUACAGUCCGACGAUCGCUCUCUUAACUUGUAUCUUCAUUAAGGAACUCUGCAAGGUUAAGUUUACUUUUCUGUAGCGCAGCUGUUUUGGCUCGUCUGGUAGUCUCAUCCUUCAUUUCUAUUCUGGUUCCAUGAUCCAACAGAGGAUUGAGCAUCA
B21: chr6:128383251:128383252:-_ENSMUSG00000030357_ENSMUST00000032508|mus_hu|motif|central (ssRNA)
RNA: GGGAGUUCUACAGUCCGACGAUCGUUGAGGUGAGAGGCCAGUCGAAGGGCCUGUGCUUUCUGUGCUUCCUCAUUGGAAAAACGGGACUCAUAUUCCAGCCAAGACACGAUCUUCUUAUACUGUAGUAAAGCUUGCUUGUAUUUCAACAGAGGAUUGAGCAUCA
B22: chr13:100194276:100194277:-_ENSMUSG00000052727_ENSMUST00000064762|mus_mus|FALSE|FALSE (ssRNA)
RNA: GGGAGUUCUACAGUCCGACGAUCAACCUUAAAAAAACUUCAAUUUUUGUCUUACAAAAAACACUUAAAAUAAUAAUUAAAAAGAAAGACCAUCGUUUCAAAAUUUUCUUUGCGUUUUCCUGUAAAUGAAAACAUUUGUUAAAACAACAGAGGAUUGAGCAUCA

target: T1, UNK ZnF1-3; assay: nsRBNS (natural sequence RNA bind-n-seq); RBNS binding buffer (assumed for nsRBNS): 25 mM Tris pH 7.5, 150 mM KCl, 3 mM MgCl2, 0.01% Triton X-100, 500 ug/ml BSA, 20 U/ml SUPERase-In, 4 C; UNK is unkempt and MSI1 is Musashi-1; names of the RNAs are library labels; protein concentration not given here; high values mean tight binding

| Binder | binding signal [enrichment R] |
| --- | --- |
| B1 | 1.24 |
| B2 | 0.986 |
| B3 | 0.665 |
| B4 | 0.984 |
| B5 | 1.74 |
| B6 | 1.6 |
| B7 | 0.633 |
| B8 | 0.956 |
| B9 | 0.615 |
| B10 | 0.936 |
| B11 | 1.41 |
| B12 | 0.729 |
| B13 | 2.43 |
| B14 | 0.769 |
| B15 | 1.07 |
| B16 | 1.2 |
| B17 | 1.73 |
| B18 | 0.6 |
| B19 | 0.619 |
| B20 | 0.393 |
| B21 | 0.825 |
| B22 | 1.15 |
